Experimental data as given in PubChem BioAssay AID463173 (ICCB-Longwood Screening Facility, Harvard Medical School, 2010).
Screen size: about 52,000 compounds; about 1,700 (3.3%) were called active. No stated cut-off is given here; in the data, active means survival mostly below about 52% (no sharp cut-off); inactive means mostly above about 56%. The list shows a part of the results.

Tested on: Wild type
Test: growth inhibition of S. aureus wild type versus tarO mutant, primary screen, teichoic acid synthesis inhibitors, RN4220, OD600 (AID 463173)
Details: S. aureus RN4220 wild type/DeltatarO growth, OD600, 18 h, stronger effect = lower value, screened at 18.75 µg/mL (by protocol)

| SMILES | survival |
| --- | --- |
| COc1cccc(NC(=O)Cn2c(=O)n(CCCCC(=O)NCc3ccc4c(c3)OCO4)c(=O)c3ccccc32)c1 | inactive: 92% |
| CCOc1ccccc1C(=O)Nc1cc(-c2nc3cccnc3s2)ccc1C | inactive: 67% |
| CCC(Sc1ncnc2sc3c(c12)CCCC3)C(=O)OCC(C)C (stereo not given) | active: -3% |
| CCOC(=O)N1CCC(NC(=O)c2cnn(-c3ccc(C)cc3)c2C2CCN(C(=O)OC(C)(C)C)CC2)CC1 | inactive: 69% |
| COc1ccc(-n2c(SCc3nc(-c4ccc(Cl)cc4)no3)nnc2-c2ccncc2)cc1 | inactive: 77% |
| COc1ccc(Nc2oc(-c3ccc(COc4ccccc4)o3)nc2C#N)cc1 | inactive: 116% |
| N#Cc1ccc(NC(=O)c2ccc3c(c2)nnn3C2CCCC2)cc1 | inactive: 134% |
| CCCS(=O)(=O)N1CC(=O)N(c2cc(C)cc(C)c2)C(C)(C(=O)NC2CCCCCC2)C1 (stereo not given) | inactive: 81% |
| Oc1cccc(Nc2cc(-c3ccccc3)ncn2)c1 | inactive: 71% |
| CC(C)(C)C(=O)Nc1ccc2nc(SCCOc3ccccc3Cl)sc2c1 | inactive: 99% |
| CCOc1ccc(-c2cc(CCCC(=O)NCCc3ccc(OC)c(OC)c3)no2)cc1 | inactive: 125% |
| Cc1ccc(NC(=O)CCc2c(C)nc3ncnn3c2C)cc1Cl | inactive: 75% |
| Cc1ccccc1NC(=O)Cn1nnc(C(=O)NCc2cccs2)c1N | inactive: 100% |
| Cc1cccc(NC(=O)CN2C(=O)CC(c3ccccc3)Sc3ccccc32)c1 (stereo not given) | inactive: 77% |
| CC(CNC(=O)c1csc2c1CCCCC2)c1ccccc1 (stereo not given) | active: 0% |
| CCc1ccc(NC(=O)Cn2nnc(C(=O)Nc3ccc(F)cc3)c2N)cc1 | inactive: 124% |
| O=C(Nc1cccc(O)c1)c1cc(-c2ccccc2F)no1 | inactive: 89% |
| CCc1ccc(NS(=O)(=O)c2ccc(NC(=O)N3CCCC3)cc2)cc1 | inactive: 78% |
| Cc1ccc(C)c(CSc2cn(CCNC(=O)c3cccs3)c3ccccc23)c1 | inactive: 78% |
| Cc1ccc(CSc2nc3cc(C(=O)NC4CCCC4)ccc3c(=O)n2Cc2ccccc2)cc1 | inactive: 65% |
| O=C(NCc1cccc(Cl)c1)c1ccc2c(Cl)c3c(nc2c1)CCCC3 | inactive: 66% |
| COc1ccc(CCN2C(=O)N(c3ccc(C)cc3)C(=O)C2CC(=O)Nc2ccc(OC)cc2)cc1 (stereo not given) | inactive: 76% |
| COc1cc(NC(=O)c2cc(S(=O)(=O)N3CCC(C)CC3)cn2C)cc(OC)c1OC | inactive: 74% |

| SMILES | survival |
| --- | --- |
| CCOC(=O)C1CCCN(C(=O)Cn2ncc3c4ccccc4n(C)c3c2=O)C1 (stereo not given) | inactive: 118% |
| O=C(CSc1ncc(CO)n1Cc1ccc(F)cc1)NCc1ccco1 | inactive: 134% |
| COc1cc(O)ccc1-c1nc2cc(C)ccn2c1Nc1ccccc1C | inactive: 73% |
| CC(C)(O)C1Cc2cc(/C=C/C(=O)O)c(O)cc2O1 (stereo not given) | inactive: 97% |
| O=C(Nc1cccc(F)c1)C1CCN(S(=O)(=O)c2ccc3[nH]c4c(c3c2)CCCCC4)CC1 | inactive: 68% |
| C=CCC1N(c2ccccc2)C(=O)C2C(C(=O)O)C3C=CC21O3 (stereo not given) | inactive: 112% |
| COc1ccc(NC(=O)CSc2nc3nc(C)cc(C)n3n2)cc1OC | inactive: 72% |
| Cc1cccc2c(=O)cc(CSc3ccccc3NC(=O)c3cccc(Br)c3)[nH]c12 | inactive: 91% |
| CCc1ccc(S(=O)(=O)Nc2cccc(-c3ccc(OC)nn3)c2)s1 | inactive: 71% |
| Cc1ccc(S(=O)(=O)NC(CO)C(=O)O)cc1 (stereo not given) | inactive: 94% |
| CCOc1ccccc1NC(=O)NCc1noc2ccc(C)cc12 | inactive: 76% |
| COc1cccc(NC(=O)c2sc3nc(C)c(C(=O)Nc4ccc(C)cc4C)c(-c4ccc(C)o4)c3c2N)c1 | inactive: 66% |
| CCC1CCCCN1CCCNC(=O)c1c(C)oc2ncn(CC(C)C)c(=O)c12 (stereo not given) | inactive: 67% |
| O=C(O)c1ccc(NS(=O)(=O)c2ccc(N3C(=O)CCC3=O)cc2)cc1 | inactive: 101% |
| O=c1n(Cc2ccc(Cl)cc2)nc2n1-c1ccccc1OC2 | inactive: 73% |
| Cc1ccc(N2CC(C(=O)NCc3nnnn3-c3ccc(C)c(C)c3)CC2=O)cc1C (stereo not given) | inactive: 59% |
| COc1cc(C(=O)NCC(c2ccc3c(c2)OCO3)N2CCN(C)CC2)cc(OC)c1OC (stereo not given) | inactive: 128% |
| COc1cccc2c1cc1c(=O)n(CC(=O)NCc3ccc(N(C)C)cc3)nc(C)n12 | inactive: 83% |
| CC(C)c1ccc2oc(-c3cc(NC(=O)c4cccnc4)ccc3Cl)nc2c1 | active: 1% |
| O=C(CSc1nc2ccccc2nc1Cc1ccc(Cl)cc1)N1CCN(c2ccccc2F)CC1 | inactive: 83% |
| Cc1ccccc1OCC(=O)Nc1ccc2nc(SCCOc3ccccc3)sc2c1 | inactive: 115% |
| CC(C)c1c(O)nc(SCCC(=O)O)[nH]c1=O | inactive: 96% |
| CN(C(=O)CSc1nc2ccc(NC(=O)CCc3ccccc3)cc2s1)c1ccccc1 | inactive: 86% |

| SMILES | survival |
| --- | --- |
| CN(C)S(=O)(=O)c1ccc(NC(=O)Cn2c(-c3ccccc3)noc2=O)cc1 | inactive: 115% |
| CCOc1ccc(-c2cc(C(=O)N3CCN(c4cccc(C)c4)C(C)C3)c3ccccc3n2)cc1 (stereo not given) | inactive: 113% |
| CCc1ccccc1NC(=O)C(=O)NCC(c1cccnc1)N1CCc2ccccc21 (stereo not given) | inactive: 79% |
| Cc1ccc(-c2nnc(Nc3ccc(S(N)(=O)=O)cc3)c3ccccc23)cc1S(=O)(=O)N1CCOCC1 | inactive: 69% |
| Cc1ccc(C)c(Cn2c(SCC(=O)N(C)Cc3ccccc3)nc3ccccc32)c1 | inactive: 71% |
| Cc1ccc(C)c(N2CCN(C(=O)CCCCCn3c(=O)[nH]c4ccccc4c3=O)CC2)c1 | inactive: 71% |
| COc1ccc2c(c1)Cc1sc(NC(=O)c3cccc(F)c3)nc1-2 | inactive: 69% |
| CC(NC(=O)c1cccc(NC(=O)c2nsc3ccccc23)c1)c1ccccc1 (stereo not given) | inactive: 111% |
| COc1ccc(C(=O)Nc2ccc3oc(-c4ccc(OC)cc4)nc3c2)cc1 | inactive: 80% |
| CCOC(=O)c1ccc(NC(=O)C2CC(=O)N(c3ccc(C(C)C)cc3)C2)cc1 (stereo not given) | inactive: 80% |
| CCCC(=O)Nc1cc(-c2nc3cccnc3s2)ccc1C | inactive: 106% |
| Cc1ccc(NC(=O)NCC2CCN(Cc3cccc(Cl)c3)CC2)cc1Cl | active: -6% |
| COCc1cc(C)n(CC(N)=O)c(=O)c1C#N | inactive: 106% |
| CCc1cccc(NC(c2nnc(-c3ccccc3)o2)c2ccc(F)cc2Cl)c1 (stereo not given) | inactive: 70% |
| COc1cccc(-n2c(-c3ccco3)nc3c(cnn3-c3ccc(C)cc3)c2=O)c1 | inactive: 56% |
| CCN1c2ccccc2-c2nc(SCC(=O)Nc3c(C)cc(C)cc3C)ncc2S1(=O)=O | inactive: 75% |
| CCOc1ccc(NS(=O)(=O)c2ccc3[nH]cc(C(=O)NC4CCCC4)c(=O)c3c2)cc1 | inactive: 55% |
| CCOc1ccc(C(=O)c2cn(Cc3ccc(OC)cc3)c3cc(OC)c(OC)cc3c2=O)cc1 | inactive: 134% |
| Cc1ccc(C(=O)CSc2nnc(-c3ccccc3)n2-c2ccccc2)cc1 | inactive: 79% |
| CCn1c(C(C)C)n[nH]c1=S | inactive: 102% |
| Cc1cccc(NC(=O)CCNS(=O)(=O)c2cccc3nonc23)c1 | inactive: 62% |
| CC(=O)Nc1ccc(S(=O)(=O)NC2(C(F)(F)F)C(=O)Nc3c2c(=O)[nH]c(=O)n3-c2ccc(C)c(C)c2)cc1 (stereo not given) | inactive: 71% |
| CC1=C(C(=O)NCc2ccc(C)cc2)C2(CCCCC2)OC1=O | inactive: 65% |

| SMILES | survival |
| --- | --- |
| Cc1ccc2cccc(NC(=O)C(C)Oc3ccc(C)c(C)c3)c2n1 (stereo not given) | inactive: 83% |
| CCOc1ccc(NC(=O)CSc2ncc3c(n2)-c2cc(Cl)ccc2N(C)S3(=O)=O)cc1 | active: -3% |
| Cc1noc(Cn2c(=O)c3ccccc3n(CC(=O)Nc3ccc(Cl)cc3)c2=O)n1 | inactive: 80% |
| O=C(Nc1cc(Cl)ccc1Cl)C1(c2cccs2)CCOCC1 | inactive: 105% |
| O=C(CCS(=O)(=O)c1nc(-c2ccc3c(c2)OCO3)cc(C(F)(F)F)n1)Nc1ccc(F)c(Cl)c1 | inactive: 32% |
| CN(C)c1ccc(C(CNS(=O)(=O)c2ccc(F)cc2)N2CCCC2)cc1 (stereo not given) | inactive: 124% |
| COc1ccc(Nc2ncc(C(=O)Nc3cc(Cl)c(OC)cc3OC)c3ccccc23)cc1 | inactive: 99% |
| Cc1ccc(C)c(C2C(C#N)=C(N)OC3=C2C(=O)CCC3)c1 (stereo not given) | inactive: 107% |
| O=c1c2cc3c(cc2n(Cc2cccc(Cl)c2)c(=O)n1Cc1nc(-c2ccccc2)no1)OCO3 | inactive: 55% |
| CCOc1ccccc1C(=O)Nc1ccccc1 | inactive: 106% |
| CC(=O)N1CCCc2cc(S(=O)(=O)N3CCCC(C(=O)Nc4cccc(F)c4)C3)ccc21 (stereo not given) | inactive: 85% |
| COc1ccc(NC(=O)CCNS(=O)(=O)c2cccc3nonc23)c(OC)c1 | inactive: 67% |
| COc1ccc(N2CCN(C(=O)c3ccc(Nc4nc5ccccc5n5nnnc45)cc3)CC2)cc1 | inactive: 95% |
| CCN1CCCC1CNC(=O)c1c(O)c2c([nH]c1=O)CCCC2 (stereo not given) | inactive: 111% |
| CN1C(=O)C(O)N(c2ccc(Cl)c(Cl)c2)C1=O (stereo not given) | inactive: 100% |
| O=C(Nc1ncc(Cc2ccc(Cl)cc2)s1)c1ccc2c(c1)CC(c1ccccc1)OC2=O (stereo not given) | inactive: 87% |
| CCOC(=O)CNC(=O)c1cc2c(=O)n3cccc(C)c3nc2s1 | inactive: 156% |
| Cc1ccc(NC(=O)CCNS(=O)(=O)c2ccc3c(c2)CCN3C(=O)C2CC2)c(Cl)c1 | inactive: 72% |
| CCCn1c2ccccc2c2cnn(CC(=O)NCCc3ccc(OCC)c(OCC)c3)c(=O)c21 | inactive: 76% |
| O=C1CN=C(Nc2cccc(C(F)(F)F)c2)N1C1CCCC1 | inactive: 125% |
| COc1cccc(CNC(=O)CSc2nc3ccccc3nc2Cc2ccc(C)cc2)c1OC | inactive: 81% |
